# Measurements as given in PubChem BioAssay AID602310 (National Center for Advancing Translational Sciences (NCATS), 2012).
# “And” between values parts separate entries of the source, which are not always exact repeats. Equal entries are not always repeated. Screen size: about 410,000 compounds; about 310 (0.076%) were called active. Inconclusive results, whose numbers are uncertain, are shown with a selection of clear calls. The call rests on the fitted dose curve; in most records, active means well fitted curve in the direction sought with a large enough effect; inconclusive means small, poorly fitted or top-dose-only effect; inactive means flat fitted curve, though single readings scatter. Where the call is inconclusive, the potency comes from a doubtful curve fit.
# Molecular target: DNA dC->dU-editing enzyme APOBEC-3G (Homo sapiens) (UniProt Q9HC16)
# Sequence of UniProt Q9HC16 (Q9HC16 whole entry, looked up): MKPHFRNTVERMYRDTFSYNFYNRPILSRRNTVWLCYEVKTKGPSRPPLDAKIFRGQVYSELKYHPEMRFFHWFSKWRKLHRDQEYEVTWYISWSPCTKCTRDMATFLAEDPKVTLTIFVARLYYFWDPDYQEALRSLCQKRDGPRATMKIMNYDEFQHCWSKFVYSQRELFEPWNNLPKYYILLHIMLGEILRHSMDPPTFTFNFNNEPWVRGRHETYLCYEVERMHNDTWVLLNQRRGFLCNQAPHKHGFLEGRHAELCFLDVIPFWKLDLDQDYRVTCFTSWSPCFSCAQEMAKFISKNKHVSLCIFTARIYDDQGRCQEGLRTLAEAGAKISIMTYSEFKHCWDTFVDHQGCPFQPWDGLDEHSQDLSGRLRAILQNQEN
# Experiment: qHTS for Inhibitors of Vif-A3G Interactions: qHTS; further: nearly all actives have a fitted effect of over 60% in size;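 on activity, negative = active: hits raise eYFP signal because A3G escapes Vif-driven loss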
# Settings: HeLa A3G-eYFP + Vif (tagged APOBEC3G with the HIV-1 protein that degrades it), YFP fluorescence, overnight; series mostly up to 46.1 µM; activity, negative = active: at the top concentration
# Procedure, shortened: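 HeLa cells stably expressing Vif and C-terminally eYFP-tagged A3G, seeded overnight at 37 deg C, then exposed to compound by pintool overnight at 37 deg C. Rise in yellow fluorescence (Ex 488/Em 500-530, Acumen) marks blocked Vif-driven A3G degradation.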
# On the % scale 0 is the no-effect control and ±100 the full control effect; potency means the concentration at half of the fitted maximal effect; tags describe the fitted curve by direction and shape.
SMILES,"activity, negative = active",Potency
CCc1ccc(C2=NN(CCC(=O)NC3CCCCCC3)C(=O)CC2)cc1,inactive: 0.477%,
COc1ccc(CCN2C(=O)N(c3cccc(OC)c3)C(=O)C2CC(=O)Nc2ccccc2)cc1 (centres undefined),inactive: 3.95%,
CCOC(=O)c1ccc(Nc2cc(C)nc(-c3ccccc3)n2)cc1,,"inconclusive: 6.31 µM [inhibitor, single point]"
Cc1nc(COC(=O)c2ccc(S(=O)(=O)N3CCCC3)cc2)cs1,inactive: -4.13%,
CCOC(=O)C1CCCCN1Cc1cccc(Oc2ccccc2)c1 (centres undefined),inactive: -1.92%,
C[C@@H]1CN([C@@H](C)CO)S(=O)(=O)c2ccc(Br)cc2O[C@@H]1CN(C)Cc1ccccn1,,"inconclusive: 35.5 µM [inhibitor, partial curve, poor fit]"
CCc1ccc(-n2nc(CO)c(C(=O)NCc3ccccc3Cl)n2)cc1,inactive: 3.02%,
Cc1cc(=O)[nH]c2nnc(SCc3ccccc3F)n12,inactive: 11.2%,
O=C(Nc1ccncc1)Nc1cccc(Cl)c1Cl,inactive: -0.0076%,
CCCc1nc(SCC(=O)c2ccc(F)cc2)c2ccccc2n1,inactive: -0.229%,
Clc1ccc2nnnc(-c3ccccc3)c2c1,,"inconclusive: 5.62 µM [inhibitor, full curve]"
COc1cc(/C=C2\SC(=S)N(CCC(=O)N3CCCCC3)C2=O)cc(OC)c1OC,inactive: -4.88%,
CN(C)c1ccc(/C=C/c2ccnc3ccccc23)cc1N,,"inconclusive: 3.55 µM [inhibitor, partial curve]"
CC(=O)/C=C/c1ccc2c(c1)S(=O)(=O)N(C1CCCC1)[C@H]2CC(C)=O,,"inconclusive: 22.4 µM [inhibitor, single point]"
COc1ccc(-c2sc(NC(C)=O)nc2-c2ccccc2)cc1,,"inconclusive: 35.5 µM [inhibitor, single point]"
CCn1c2ccccc2c2cc(/C=N/NC(=O)c3ccccc3)ccc21,,"inconclusive: 8.91 µM [inhibitor, partial curve]"
COc1ccccc1/C=C/C(=O)/C=C/c1ccccc1O,,"inconclusive: 6.31 µM [inhibitor, single point]"
O=c1c2ccccc2sn1-c1cccc(Cl)c1,inactive: -9.21%,
CSc1cccc(NC(=S)N(CCN(C)C)C(C)c2ccccn2)c1 (centres undefined),,"inconclusive: 25.1 µM [inhibitor, single point]"
COc1ccc(C2CC(=O)Oc3cc(C)cc(C)c32)cc1 (centres undefined),,"inconclusive: 11.2 µM [inhibitor, partial curve]"
CSc1nc(Oc2ccc(F)cc2)c2ccccc2n1,,"inconclusive: 20 µM [inhibitor, single point]"
COc1ccc(-c2oc3ccccc3c2C#Cc2cncn2C)cc1,,"inconclusive: 11.2 µM [inhibitor, partial curve, poor fit]"
COc1ccccc1NC(=O)Cn1nnc(C(=O)NCc2cccs2)c1N,,"inconclusive: 1 µM [inhibitor, full curve, poor fit] and inconclusive: 891 nM [inhibitor, full curve, poor fit]"

SMILES,"activity, negative = active",Potency
COc1cc(OC)c(OC)cc1/C=C1\Oc2cc(OS(C)(=O)=O)ccc2C1=O,,"inconclusive: 22.4 µM [inhibitor, single point]"
COc1ccc(CN(CC(=O)NCC2CCCO2)C(=O)CCC(=O)Nc2cc(C)ccn2)cc1 (centres undefined),,"inconclusive: 3.55 µM [inhibitor, single point]"
Cc1ccccc1CN(C)CC(=O)Nc1c(C)cccc1C(C)C,inactive: 3.61%,
Cn1c(-c2c(N)n(CCc3ccccc3)c3nc4ccccc4nc23)nc2ccccc21,,"inconclusive: 35.5 µM [inhibitor, single point]"
COC(=O)c1c(NC(=O)C2Cc3ccccc3C(=O)O2)sc2c1CCCC2 (centres undefined),inactive: 0.879%,
CCCCC(=O)N(C)c1c(CC)nc2c(OCC(=O)N3CCOCC3)cccn12,inactive: 1.39%,
COc1ccc2cc(CN(Cc3ccco3)C(=S)NCC3CCCO3)c(=O)[nH]c2c1 (centres undefined),,"inconclusive: 12.6 µM [inhibitor, partial curve]"
CC(=O)Nc1ccc(-c2ccnc3c2CC(C)(C(=O)NCc2ccco2)O3)cc1 (centres undefined),,"inconclusive: 2.51 µM [inhibitor, full curve, poor fit]"
NS(=O)(=O)c1ccc(CNC(=O)c2cc(-c3cccs3)nc3ccccc23)cc1,inactive: -0.545%,
CCCOc1ccc(NC(=O)CC2C(=O)N(c3ccc(C)cc3)C(=O)N2C(C)C)cc1 (centres undefined),inactive: -2.61%,
CCOc1ncccc1C(=O)OCc1ccc(C(=O)OC)cc1,,"inconclusive: 7.08 µM [inhibitor, partial curve]"
COc1ccc(C(=O)/C=C/C(=O)N(Cc2ccc(F)cc2)C(C(=O)NC2CCCCC2)c2ccncc2)c(O)c1 (centres undefined),inactive: -7.5%,
O=C(c1ccccc1)c1cc([N+](=O)[O-])ccc1N1CCOCC1,,"inconclusive: 1.78 µM [inhibitor, full curve, poor fit]"
CCCC(=O)Nc1nc2ccc(NC(=O)c3c(F)c(F)c(OC)c(F)c3F)cc2s1,,"inconclusive: 2 µM [inhibitor, full curve, poor fit]"
Cc1ccc(C(=O)N/N=C/c2ccc([N+](=O)[O-])s2)cc1,,"inconclusive: 2.82 µM [inhibitor, partial curve, poor fit]"
CC(C)(C)c1ccccc1OCCOCCNCc1ccccc1,inactive: -8.23%,
CN(C)c1ccc(CNC(=O)C2(C)Cc3c(-c4ccccc4)ccnc3O2)cc1 (centres undefined),,"inconclusive: 8.91 µM [inhibitor, partial curve, poor fit]"
COc1ccc(/C=N/NC(=O)c2ccc(Cl)cc2Cl)cc1COC(C)=O,,"inconclusive: 11.2 µM [inhibitor, single point]"
Cc1noc(C)c1COc1ccc(CC(=O)NCc2ccccc2)cc1,,"inconclusive: 1.41 µM [inhibitor, full curve, poor fit]"
COc1ccc(-c2ccnc(-c3ccc(OCCCF)cc3)n2)cc1,,"inconclusive: 6.31 µM [inhibitor, full curve, poor fit]"
COC(=O)[C@@]1(Cc2ccc(F)cc2)[C@H]2c3cc(C(=O)N(C)C)n(Cc4c(CO)[nH]cc(C)c4=O)c3C[C@H]2CN1C(=O)c1ccccc1,,"inconclusive: 17.8 µM [inhibitor, partial curve, poor fit]"
COCCNc1nc(-c2ccccc2CO)c2sc(-c3ccccc3)cc2n1,,"inconclusive: 0.708 µM [inhibitor, full curve, poor fit]"
Cn1cccc1-c1cc(C(=O)N/N=C/c2ccc(Cl)cc2)[nH]n1,,"inconclusive: 17.8 µM [inhibitor, single point]"

SMILES,"activity, negative = active",Potency
CCS(=O)(=O)N1Cc2ccccc2CC1C(=O)Nc1nnc(SCc2c(Cl)cccc2Cl)s1 (centres undefined),inactive: 4.47%,
Nc1ccc2c(c1)[nH]c(=O)c1ccccc12,inactive: 1.13%,
CCn1ccc(C(=O)NC2=NCCS2)n1,inactive: -2.68%,
COc1ccc(/C=N/NC(=O)c2ccc(O)cc2)cc1CN1CCCc2ccccc21,,"inconclusive: 20 µM [inhibitor, partial curve, poor fit]"
COc1ccc(C(C)=O)cc1COc1cccnc1[N+](=O)[O-],,"inconclusive: 11.2 µM [inhibitor, single point]"
CC1(C)Cc2ccccc2C2CC(O)C(=O)N21 (centres undefined),,"inconclusive: 22.4 µM [inhibitor, partial curve, poor fit]"
O=C(O)c1ccc(S(=O)(=O)Nc2ccc(O)c(Sc3nc4ccccc4s3)c2)cc1,inactive: 1.21%,
CCCCCN1C(=O)/C(=C/c2c(N3CCc4ccccc4C3)nc3ccccn3c2=O)SC1=S,,"inconclusive: 2.82 µM [inhibitor, single point]"
C[n+]1cn(/N=C/c2ccccc2)c2ccccc21,inactive: -0.644%,
CCOc1ccccc1CNC(=O)Cc1ccc(NC(=O)N2CCCCc3ccccc32)cc1,inactive: 0.53%,
COc1ccc(-c2cc(C(F)(F)F)c3c(N)c(C(=O)NCCSC)sc3n2)cc1,,"inconclusive: 12.6 µM [inhibitor, single point]"
COc1ccc(N(C(=O)CCl)C(C(=O)NCCc2ccccc2)c2cccs2)cc1Cl (centres undefined),,"inconclusive: 12.6 µM [inhibitor, single point]"
COc1cc(C(=O)N/N=C/c2ccccn2)cc(OC)c1OC,,"inconclusive: 5.01 µM [inhibitor, full curve, poor fit]"
COc1ccc(NC(=O)N(C)[C@H]2C[C@H]3c4[nH]c5ccc(-c6cccc(C)c6)cc5c4CCN3C[C@H]2[C@H](C)O)cc1,,"inconclusive: 35.5 µM [inhibitor, single point]"
C=CCn1cc(/C=C/c2cc[n+](C)cc2)c2ccccc21,,"inconclusive: 2.82 µM [inhibitor, full curve, poor fit]"
COc1ccc(C(=O)NCC(=O)N2CC=C(c3ccccc3)CC2)cc1OC,,"inconclusive: 35.5 µM [inhibitor, single point]"
Cc1nnc2sc(-c3ccc(NC(=O)c4ccc(-c5ccc(Cl)cc5Cl)o4)cc3)nn12,inactive: -5%,
Oc1ccc(F)c2cccnc12,,"inconclusive: 28.2 µM [inhibitor, single point]"
CCn1nc(-c2ccccc2)c2nc3ccccc3nc21,,active: 12.6 µM
Cc1cc(C(F)(F)F)c(C#N)c(SCC(=O)Nc2nc3ccccc3s2)n1,,"inconclusive: 6.31 µM [inhibitor, partial curve, poor fit]"
C=CCn1c(SCc2ccc(C(=O)Nc3nccs3)cc2)nnc1-c1ccc(C)c(Cl)c1,inactive: 2.19%,
O=C(Nn1c(C2CCCCC2)nc2ccccc2c1=O)c1ccc(Cl)c([N+](=O)[O-])c1,,"inconclusive: 35.5 µM [inhibitor, partial curve, poor fit]"
CCn1c(/C=C/c2ccc(O)c(O)c2)nc2ccccc2c1=O,,"inconclusive: 15.8 µM [inhibitor, single point]"
